This is one part of the list.

The test system of this test is T1, C. trachomatis L2/434/Bu expressing GFP (CTL2-GFP).
T1 construct: L2/434/Bu GFP intracellular growth in HeLa cells
Also on record: species or system HeLa; C. trachomatis total inclusion area by high-content imaging, normalised to DMSO. Particulars: total inclusion area; 28.5 h, 10 µM; inhibitor. The procedure, abridged: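 After bulk GFP and resorufin fluorescence reads, cells were fixed, stained with Hoechst and imaged by high-content microscopy. Inclusion area and number (GFP) stood in for chlamydial growth, nuclei count (Hoechst) for host cell viability. MICs were derived as for the bulk readout.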
For `O=C(NCCNc1cnccn1)c1cc(F)cc(Br)c1` [CBK304554], the “% of control remaining” value was 27.4409. In the case of `COc1ccc(OC)c(S(=O)(=O)N2CCN(c3ncccn3)CC2)c1` [CBK008662], the “% of control remaining” value is 77.8008. Turning to `CC(C)c1ccc(CN2CCC3(CC2)CN(CCO)c2ccccc23)cc1` [CBK122708], the “% of control remaining” value is recorded as 77.9956. For the molecule `Cc1cc(C(=O)CSc2nnc(CN3CCCC3)o2)c(C)n1C1CC1` [CBK306199], the “% of control remaining” value came out at 66.9356.

`CN1CCC(N(C)C(=O)NCCc2c[nH]c3ccccc23)C1` (stereo not shown) [CBK156012]: the “% of control remaining” value turned out to be 101.968. For `CN(C)S(=O)(=O)NC1CC(C)(C)Cc2c1cnn2-c1ccccc1` (stereo not shown) [CBK307533], the “% of control remaining” value is reported as 71.9906. As for `CC(C)Cn1c(=O)[nH]c2ncc(-c3cccc4cccnc34)nc21` [CBK064400], the “% of control remaining” value came to 71.6541. Consider `O=C(Nc1ccccc1N1CCOCC1)c1cccc(OCc2ccccc2)c1` [CBK270011], for which the “% of control remaining” value was found to be 103.878. Take `Nc1cc(-c2ccco2)nn(Cc2c(Cl)cccc2Cl)c1=O` [CBK282880]: the “% of control remaining” value is recorded as 70.027. On to `O=C(Cc1n[nH]c(=O)[nH]c1=O)N/N=C/c1cccc(Br)c1` [CBK263086], for which the “% of control remaining” value is on record as 113.659. `COc1cccc(CN2CCCC(NC(=O)c3cn4ccsc4n3)C2)c1` (stereo not shown) [CBK307204]: the “% of control remaining” value worked out at 94.7495. As for `C=CCOc1ccc(Cl)cc1C(=O)NCc1c(C)n[nH]c1C` [CBK282587], the “% of control remaining” value amounted to 97.2151. Consider `CC(C)Nc1cncc(Sc2cccc(C(=O)O)c2)n1` [CBK093582], for which the “% of control remaining” value turned out to be 80.1807.

Turning to `Cc1cc(C)n(CCNC(=O)N2CCC(Oc3cccnc3)CC2)n1` [CBK306719], the “% of control remaining” value is 66.6751.

Turning to `CN(Cc1ccncc1)C(=O)c1cccc(S(=O)(=O)NCC2CC2)c1` [CBK305365], the “% of control remaining” value turned out to be 70.7707. In the case of `COc1ccc(NC(=O)c2ccc3ncsc3c2)cc1` [CBK287368] it was 82.8766; in that of `Cc1ccc(S(=O)(=O)N[C@H]2CO[C@H]3[C@@H]2OC[C@H]3O)cc1` [CBK289477], 117.37. As to `Cc1cc(=O)c2ccccc2n1CC(=O)N(C)CC1CCCCO1` (stereo not shown) [CBK306960], the “% of control remaining” value is on record as 43.5516. As for `O=C(O)CCCC(=O)NCc1cccnc1` [CBK261708], the “% of control remaining” value is on record as 81.6713. As to `CC(NC(=O)c1ccc(-c2ccccc2F)s1)C(=O)N1CCCCC1` (stereo not shown) [CBK305740], the “% of control remaining” value was determined as 62.3017. For `Sc1nncn1NCc1cc(Cl)ccc1OCc1ccccc1` [CBK265752], the “% of control remaining” value was 95.3455.

For `COc1cccc(CN2CCc3cc(OC)c(OC)cc3C2)c1` [CBK126441], the “% of control remaining” value is given as 103.379. In the case of `CC(=O)c1c(C)nc2nc(-c3ccncc3)nn2c1C` [CBK288552] it was 88.8485. In the case of `O=C(NNC(=O)c1cccnc1)c1ccc(NC(=O)c2ccco2)cc1` [CBK266792], the “% of control remaining” value is 80.1275.

In the case of `N#CCCN(Cc1ccco1)C(=O)c1ccc(OCC2CC2)cc1` [CBK304051], the “% of control remaining” value worked out at 58.6206.

Take `CCOC(=O)N1CCN(C(=O)Nc2ccc3oc(=O)n(C)c3c2)CC1` [CBK306250]: the “% of control remaining” value stood at 71.9198.

Regarding `COc1cncc(-c2cc(Nc3ccc(NS(=O)(=O)c4ccc(C)cc4)cc3)ncn2)c1` [CBK090988], the “% of control remaining” value was found to be 143.257. `CCC#CC(=O)Nc1ccccc1N1CCCNCC1` [CBK024291T]: the “% of control remaining” value is 97.1779.

As for `O=C(NC(c1ccc(Cl)cc1)c1cccnc1)C1CCN(C(=O)c2ccco2)CC1` (stereo not shown) [CBK059708], the “% of control remaining” value worked out at 92.0573.

In the case of `CC(NC(=O)C1CCN(C2Cc3ccccc3C2)CC1)c1ccccc1` (stereo not shown) [CBK148031], the “% of control remaining” value is given as 113.048. Consider `CCn1c(-c2ccc(C)cc2)cnc1SCC(=O)N1CCN(C(C)=O)CC1` [CBK296925], for which the “% of control remaining” value came to 108.896. For the molecule `O=C(c1ccncc1)N1CCN(S(=O)(=O)c2ccccc2[N+](=O)[O-])CC1` [CBK264196], the “% of control remaining” value was determined as 92.7523. For `CC1CCCC(C)N1C(=O)Cn1ncn2c(cc3ccsc32)c1=O` (stereo not shown) [CBK284191], the “% of control remaining” value was determined as 71.4766. For the molecule `CC(=O)N1C[C@@H](c2cccc(C)c2)[C@@H]2CN(Cc3ccncc3)CC[C@@H]21` [CBK283370], the “% of control remaining” value was 87.7389. Then `O=C(c1ccc(OC(F)(F)F)cc1)N1CCC2(CCN(Cc3ccccc3)CC2)C1` [CBK136746], with 96.8481; and `Cc1csc(C(Cc2ccsc2)NC(=O)c2ccnn2C)n1` (stereo not shown) [CBK285107], with 88.7569. As for `Cc1ccc2c(c1)c(=O)cc(C(F)(F)F)n2C[C@H]1CCCN1` [CBK285303], the “% of control remaining” value worked out at 0. Take `COc1cc(OC)cc(C(=O)N(CCC#N)Cc2ccco2)c1` [CBK305133]: the “% of control remaining” value came to 29.5377.

As to `O=C(O)CCC(=O)NC1CCN(Cc2ccccc2)CC1` [CBK287103], the “% of control remaining” value worked out at 105.66. Take `O=C(c1ccc2c(c1)N(Cc1ccc(F)cc1)C(=O)CO2)c1cccs1` [CBK286410]: the “% of control remaining” value amounted to 81.6133. Regarding `COc1ccc(C(=O)Nc2ccc3c(c2)nc2n3CCN(Cc3ccccc3)C2)cc1` [CBK266820], the “% of control remaining” value is recorded as 112.71. `O=C(c1[nH]nc(O)c1Cc1c(Cl)cccc1Cl)N1CCOCC1` [CBK107228]: the “% of control remaining” value came out at 87.2818. Then `CC(=O)c1ccc(-c2cnc(N)c(NCC(C)C)n2)s1` [CBK063764], with 126.346; and `O=C(NCc1nc2ccccc2[nH]1)c1cnc(-c2ccc(Cl)cc2)c(-c2ccco2)c1` [CBK037555], with 65.8926; and `CCN1CCN(CCNC(=O)Nc2ccccc2C)CC1` [CBK267842], with 87.6269. In the case of `Cc1cccc(-c2noc(C)c2C(=O)NCCn2ccc(C)n2)c1` [CBK282656] it was 124.075; in that of `FC(F)(F)c1ccc(OCCNc2ccccc2)nc1` [CBK115828], 78.308; in that of `CCNC(=O)c1cnc(-c2cccc(C(F)(F)F)c2)c(-c2cccc(CO)c2)c1` [CBK037557], 134.519.

For `O=C(COc1ccc(F)cc1)NCc1ccc(-c2csnn2)cc1` [CBK149315], the “% of control remaining” value worked out at 105.578. Then `Cc1cc(C)n(CC(=O)N2CCCCC2C(=O)O)n1` (stereo not shown) [CBK305266], with 51.6367; and `Cc1ccc2nc(-c3ccc(N4C(Nc5nc(C)cc(C)n5)=NC(=O)CC4C(=O)O)cc3)sc2c1` (stereo not shown) [CBK266646], with 123.416.

For `O=C(O)C(=O)N1CCN(C(=O)c2cc3ccccc3[nH]2)CC1` [CBK288433], the “% of control remaining” value came out at 113.249.

The record behind these values is publication PMC12040169 (PLOS Biology, 2025).
